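Cells were grown in 96-well plates and exposed to each compound for 48 hours at five concentrations; endpoints were interpolated linearly between bracketing concentrations, or set to the highest concentration if not reached. GI50 is the concentration that inhibits growth by half.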 Certain results were filed several times, with different values. This is not the full list of results. An entry can have further records. For some of these results: Values given together are repeats (runs, samples, wells, individuals or studies). Records carry a tag for their origin. Letters hold for one entry only.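 TGI denotes the concentration required for complete inhibition of growth.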 For some of these results: Records of one sample usually come from different ranges of test concentrations, not given here; some values may only mark the edge of a range.

Some test systems named below: K-562 leukemia; OVCAR-4 ovarian; SNB-19 CNS; UO-31 renal; BT-549 breast; NCI/ADR-RES ovarian; UACC-62 melanoma.
Holding throughout (test): NCI tumour cell line growth inhibition, 48 h

As to `COc1ncc(-c2ccc3nccc(-c4ccnnc4)c3c2)cc1NS(=O)(=O)c1ccc(F)cc1F`, the GI50 in the assay with K-562 leukemia is 16.7 nM [sample A, mean of 2 tests] and 307 nM [sample B, mean of 2 tests]. Moreover, the TGI with OVCAR-4 ovarian was > 10 µM [sample A, mean of 2 tests] and 718 nM [sample B, mean of 2 tests]; with SNB-19 CNS it was 1.04 µM [sample A, 1 test] and 18.3 µM [sample B, mean of 2 tests]; in the assay on UO-31 renal, > 4.03 µM [sample A, mean of 2 tests] and 273 nM [sample B, mean of 2 tests].

In the case of `CCOC(=O)c1[nH]c(Br)c(-c2ccc(Br)cc2)c1Br`, the TGI was 5.37 µM and 55.4 µM in the assay on BT-549 breast; 462 nM and 11 µM in the assay on NCI/ADR-RES ovarian; 828 nM and 44.2 µM in the assay on UACC-62 melanoma.

These data come from PubChem BioAssay (NCI).
